The record followed here is the RNAGym collection of RNA variant scans (doi:10.1101/gad.245936.114).

Variants at the background level are over-represented here. Bounds are passed on as bounds.

B1: tRNA (parent)
chain: CUCUCGGUAGCCAAGUUGGUUUAAGGCGCAAGACUUUAAUUUAUCACUACGAAAUCUUGAGAUCGGGCGUUCGACUCGCCCCCGGGAGAUUUUUUCCUCGAGCAA

In this series the parent is B1. Description: nonsense suppression (GFP-seq) (ratio to wild type); higher = more function; SUP4oc tRNA, yeast GFP reporter sort-seq. Summed up: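 Raffinose/galactose medium with 80 mg/L adenine was used to grow yeast carrying genome-integrated tRNA variants (~3% random-mutation library), RFP, and a galactose-driven GFP ochre reporter. Cells went into GFP/RFP bins, which were Illumina-sequenced, and variants with ≥100 reads and ≥30 cells were scored. Nonsense suppression (GFPSEQ) is the per-bin median GFP/RFP weighted by estimated cell share and expressed relative to the unmutated parent tRNA.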
G10U C27A: the nonsense suppression was determined as 0.119.
As for G7C U55G G59U, the figure is no more than 0.026; as for A14U G73A A74G, no more than 0.026.
Take U22G U57G: the nonsense suppression is no more than 0.026.
As for C3U U4C, the figure is 0.859; as for U4C C64U G85C, no more than 0.026.
For G26U A31G A54U U57C G73C the value was no more than 0.026.
Consider C1A A23C C29G, for which the nonsense suppression is no more than 0.026.
Regarding U8G A24U C34G C77G, the nonsense suppression is no more than 0.026.
For C56G C79A the value was no more than 0.026.
Turning to G6U U58G G69A, the nonsense suppression is no more than 0.026.
As to U20A A54C U58A, the nonsense suppression was no more than 0.026.
G59A C81A G85C: the nonsense suppression was no more than 0.026.
As for C12A G26A, the nonsense suppression is no more than 0.026.
Take C5A G7U: the nonsense suppression was no more than 0.026.
As for C5A A14G A30G G85A, the figure is no more than 0.026; as for A14U U20A, no more than 0.026; as for U20G G59C G66A, no more than 0.026.
Regarding C12G U76C, the nonsense suppression is no more than 0.026.
For A24U A60G U76A A87C, the nonsense suppression was no more than 0.026.
As for G26C A54G, the figure is no more than 0.026.
For C11U A13G A60C the value was no more than 0.026.
As for G10U G61A U71G, the figure is no more than 0.026; as for C77U A87U, no more than 0.026.
For the variant C27G U76A G84C, the nonsense suppression is no more than 0.026.
As for C5G A30C, the figure is no more than 0.026; as for C3A G69C, no more than 0.026; as for C1U C34U G85C, no more than 0.026.
As for A9U G15A U20G, the nonsense suppression is no more than 0.026.
In the case of C1U C12G G84C, the nonsense suppression was no more than 0.026.
As for A13U U21G, the figure is 0.763; as for G66A U76C, no more than 0.026.
For A54G G66U U71A, the nonsense suppression was no more than 0.026.
As for U20G G88A, the figure is no more than 0.026.
For U8A A14C U20C A24C the value was no more than 0.026; for C1G U16C A89U, no more than 0.026.
Consider C1A A23U U76C, for which the nonsense suppression is no more than 0.026.
For G59A G78C C82G G85C the value was no more than 0.026.
For G61A A62G the value was no more than 0.026; for G7A U20G U35A, no more than 0.026; for C1U A31G U57G, no more than 0.026.
For U2A A31G A87G the value was no more than 0.026; for A60U A74C, no more than 0.026.
In the case of A14G G78C, the nonsense suppression is no more than 0.026.
For U20G U70A U71C the value was no more than 0.026; for G28C A31U, no more than 0.026.
Turning to A33G U55G G69C G78C, the nonsense suppression is no more than 0.026.
As for C11G G32C, the nonsense suppression is no more than 0.026.
For U8A C11U G15C C34A the value was no more than 0.026; for U16C U20C C29A, no more than 0.026.
For U20C G26C U35G C68G the value was no more than 0.026.
As to G32U G61A U70G, the nonsense suppression was no more than 0.026.
As for C34G A62C, the figure is no more than 0.026.
For C29U C34U, the nonsense suppression was no more than 0.026.
As to U2C G15A U21C A74U, the nonsense suppression is no more than 0.026.
As for C3G G15U A30C C82U, the figure is no more than 0.026; as for U8G U16C U17G G69A G85U, no more than 0.026; as for U22G G28U A62U G73U, no more than 0.026.
Regarding G15A C77A, the nonsense suppression is no more than 0.026.
G59C A87U: the nonsense suppression was no more than 0.026.
Regarding U2A G28A, the nonsense suppression is no more than 0.026.
As for A9U G26U, the figure is no more than 0.026; as for C3U C12U G67C G78C, no more than 0.026.
As for U71G C72G, the nonsense suppression was no more than 0.026.
On to G6U U35A, for which the nonsense suppression is no more than 0.026.
Consider C1G U4C A54C G69A, for which the nonsense suppression was no more than 0.026.
For A13G A31G C34A G73C, the nonsense suppression is no more than 0.026.
In the case of A54C U55G, the nonsense suppression was no more than 0.026.
As for A14G G66A, the figure is no more than 0.026.
As to C1G A14C C56A A74U, the nonsense suppression was no more than 0.026.
With G28A U76C, the nonsense suppression turned out to be 1.09.
Take G18C A54G U55G C75G: the nonsense suppression was no more than 0.026.
U8G A74U G78A: the nonsense suppression was no more than 0.026.
For G15A U57C U63G U76C the value was no more than 0.026; for U21G A24G G61C G73A U76C G88C, no more than 0.026.
On to C1A C27G A31C C34A G67C, for which the nonsense suppression was no more than 0.026.
As for A54G U55A, the nonsense suppression is no more than 0.026.
For the variant U21A G78C, the nonsense suppression worked out at 0.0372.
As for G6U A62G G65A, the figure is no more than 0.026; as for U21A A33G G69U, no more than 0.026.
For C11G A24U A62C C68G the value was no more than 0.026; for U17A G18C, no more than 0.026; for U8C C29A U57C G73C, no more than 0.026.
In the case of G73U C81G, the nonsense suppression is no more than 0.026.
For U4G C12U G15U G25U A62G the value was no more than 0.026; for G32U U35G G88A, no more than 0.026; for A13C C34G C83A, no more than 0.026.
For U17A C34U A74U the value was no more than 0.026.
For the variant C1U U22A A23U C29U A33G U57C C81G, the nonsense suppression was no more than 0.026.
For U8C C79G the value was no more than 0.026; for U8C G32U G59U, no more than 0.026.
Consider C12G C34G U71C C80U G88A, for which the nonsense suppression was no more than 0.026.
For G15U A24U the value was no more than 0.026.
As for G7U G67C, the figure is no more than 0.026.
For C11G U58A G67C C81A the value was no more than 0.026; for A33G C77A G88U, no more than 0.026; for G7A U16G A31C A60C, no more than 0.026.
With A9U A54U, the nonsense suppression was determined as 0.222.
On to C3U U76C, for which the nonsense suppression amounted to 0.17.
As to U71A A74C C82G G86A, the nonsense suppression is no more than 0.026.
As for G7A U58C G59U A60C, the figure is no more than 0.026; as for U2A C29U U55C A60C A62G, no more than 0.026; as for C82A C83A, no more than 0.026.
For A9G A33C the value was no more than 0.026; for G25C U57C, no more than 0.026; for U55A G88A, no more than 0.026.
For the variant C1A C27A A33G G66A C79U, the nonsense suppression is no more than 0.026.
As for G26C C83G G86A A87G, the nonsense suppression was no more than 0.026.
A9U A14G: the nonsense suppression was no more than 0.026.
For U2A A24C A33C the value was no more than 0.026.
For C5G U16G G69U, the nonsense suppression was no more than 0.026.
For G18C G65C the value was no more than 0.026.
For C5G C56A G61A C68U, the nonsense suppression was no more than 0.026.
For G69A C79G the value was no more than 0.026.
For the variant G26C C72A C77A C83G, the nonsense suppression is no more than 0.026.
For U2A A13U U57C U71G U76A C79U the value was no more than 0.026.
For U2C U8A G18C the value was no more than 0.026; for A30U G66A, no more than 0.026.
Take C12G A13C U22C U63G G86U: the nonsense suppression was no more than 0.026.
On to C1A C5G G61A, for which the nonsense suppression was no more than 0.026.
As to C64A G69U, the nonsense suppression is no more than 0.026.
As for A24U A33C, the figure is no more than 0.026; as for U2A C3U G69U C82A, no more than 0.026; as for C34G U35G G86U, no more than 0.026.
As for G32U A54C C81G, the figure is no more than 0.026.
For C3G A30G C34A G78C the value was no more than 0.026; for C1A A14G G66U U76G, no more than 0.026.
Consider U4C A60C, for which the nonsense suppression came to 1.04.
On to U16G C77U, for which the nonsense suppression was no more than 0.026.
Take U2A A30U G69A C77G: the nonsense suppression was no more than 0.026.
For G10C G61C the value was no more than 0.026.
For A23G G85U the value was 0.0779.
As for U16G U17C C72A, the figure is 0.27; as for U21A G86U, no more than 0.026; as for G59A U71A C79A G88C, no more than 0.026.
G7A G18U U76A: the nonsense suppression was no more than 0.026.
Take U16A A31G G86U: the nonsense suppression is no more than 0.026.
For U2C A14U G28A A74U G88U the value was no more than 0.026; for C11A A60U G84C, no more than 0.026; for U16A C29U, 0.186.
Take U8A C27G G88A A89C: the nonsense suppression was no more than 0.026.
As for C1U G6U G28C C80A G88A, the figure is no more than 0.026; as for A9G U16G A23G A30U C64U, no more than 0.026.
Take C27U G88C: the nonsense suppression is no more than 0.026.
Take G61C C83A: the nonsense suppression is no more than 0.026.
As for U8A A9U G25U, the figure is no more than 0.026; as for U57C C77A A89G, no more than 0.026.
For C1U C27G G69C U70A the value was no more than 0.026; for G6U U20A U35A A62G C72A C79U, no more than 0.026.
For U55C G78C C80U the value was no more than 0.026.
As for C5G G69C C72A C77G, the nonsense suppression is no more than 0.026.
As to A9U G32U A74C, the nonsense suppression is no more than 0.026.
Regarding A9G A23G C29G U57G, the nonsense suppression was no more than 0.026.
As for U4G G15C G85A, the figure is no more than 0.026.
As for C11G, the figure is no more than 0.026; as for U16C U58C G59A A62C, no more than 0.026.
As for C5U A74U U76A, the nonsense suppression is no more than 0.026.
As for C1A C77U, the nonsense suppression was no more than 0.026.
U57A G65C G88C: the nonsense suppression was no more than 0.026.
For C5G A9U C11A, the nonsense suppression was no more than 0.026.
For G6U G32U the value was no more than 0.026.
U21A A23G C80U: the nonsense suppression was no more than 0.026.
In the case of G7U U55C C72A A74G, the nonsense suppression was no more than 0.026.
As for G66A G67C G78A C81G, the nonsense suppression was no more than 0.026.
For G25C C29U A30U U70G U76A the value was no more than 0.026.
With U2G U4A A31G A54U, the nonsense suppression is no more than 0.026.
As for U35G G59A G61U, the figure is no more than 0.026.
